Measurements reported in PMC7819943, “Rice protein-binding microarrays: a tool to detect cis-acting elements near promoter regions in rice”.
The other results are listed elsewhere or left out.

molecular target: T1, OsWOX13 (Oryza sativa, UniProt Q5QMM3 1-267); experiment: protein-binding microarray (RPBM); PBS, 2% BSA, 51.3 ng/ul salmon testes DNA, 50 uM zinc acetate, 200 nM TF, 25 C, 1 h; high values mean tight binding; settings: protein: recombinant; tags: N-terminal polyhistidine and DsRed monomer fusion (pET32a); label: CyDye5-dUTP incorporated in the synthesized complementary strand; 3' TTTTT single-stranded linker to array surface; dsDNA, one strand shown
T1 sequence: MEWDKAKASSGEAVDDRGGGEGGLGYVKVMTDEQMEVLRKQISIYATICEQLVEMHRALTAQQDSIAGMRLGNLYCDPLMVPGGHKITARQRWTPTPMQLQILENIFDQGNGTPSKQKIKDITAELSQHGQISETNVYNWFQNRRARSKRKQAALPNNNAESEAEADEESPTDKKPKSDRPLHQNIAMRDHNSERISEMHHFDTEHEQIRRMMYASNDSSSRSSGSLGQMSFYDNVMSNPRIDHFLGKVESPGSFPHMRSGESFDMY
Method in brief: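 An Axon 4000B scanner gave the binding signal as per-feature fluorescence intensity in arbitrary units. This followed washing of a custom Agilent array that had been incubated for 1 h at 25 °C with 200 nM protein in PBS, 2% BSA, salmon testes DNA and 50 µM zinc acetate. The proteins were transcription factors fused at the N-terminus to polyhistidine and DsRed, expressed in E. coli BL21-CodonPlus and purified on Ni–NTA.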

Point of comparison: “ACAACGAATTTAGACAGATCTTTATCCAGATTTGTTAGGACGGAGTCACCTAGTGCAG”, binding signal 5910 fluorescence intensity (a.u.). Against it:
- CAGCCTTGACACAATTTGTAACTTTATTCCTTGAGTTATGCGGAGTCACCTAGTGCAG — lower, 5290 fluorescence intensity (a.u.)
- TTGGCGATTGATTGGGGAAAGGAAACTTTGCTAGGTCAATCGGAGTCACCTAGTGCAG — higher, 53500 fluorescence intensity (a.u.)
- ACTTTCCATCACATCACATCACATTCAAAACTTTTCTACTCGGAGTCACCTAGTGCAG — lower, 4460 fluorescence intensity (a.u.)
- ATTCACTTCCACAGATTGACGAGAGGAGCAAGCATGACCGCGGAGTCACCTAGTGCAG — higher, 12900 fluorescence intensity (a.u.)
- TTTGAATTACATATAATTGGTGTAAGCTCCAAGGCTTGAACGGAGTCACCTAGTGCAG — higher, 20800 fluorescence intensity (a.u.)
- GTTGATGCGGATTGTAATGAATTTGCCAAGATATCGAGAACGGAGTCACCTAGTGCAG — lower, 3420 fluorescence intensity (a.u.)
- CATTAACATATTTATAAATTTGTGTAATGCTAGAAAATCTCGGAGTCACCTAGTGCAG — higher, 11200 fluorescence intensity (a.u.)
- CATATTACAATTTGATTAGTTTGTGCTAAGTTAATGAAAACGGAGTCACCTAGTGCAG — higher, 7080 fluorescence intensity (a.u.)
- TGAAAATAATAATAATTTGATAACATGTTTTCTTCCAAGTCGGAGTCACCTAGTGCAG — higher, 7230 fluorescence intensity (a.u.)
- CCGGCAATCCAATCATTTCCCGTACCGGAAGCCGCAGCCTCGGAGTCACCTAGTGCAG — higher, 10400 fluorescence intensity (a.u.)
- TTAACTGATTGATGCTCAAGTGGATTGATCGATTTTGTTGCGGAGTCACCTAGTGCAG — higher, 65500 fluorescence intensity (a.u.)
- AGTCAGTTTATTGGCTTATATGATTTATAAGTCAGTGGATCGGAGTCACCTAGTGCAG — higher, 8380 fluorescence intensity (a.u.)
- TCAACTGATCCAATTAATTCATCGATCGTCCCTGAATTCACGGAGTCACCTAGTGCAG — higher, 10100 fluorescence intensity (a.u.)
- AATTAATTAAAACAAAACGGAGACGACGAGTACTAGTGTACGGAGTCACCTAGTGCAG — higher, 16700 fluorescence intensity (a.u.)
- ACCCTCCATTCAGTGTATTTTAATTAACTAACACCATTGCCGGAGTCACCTAGTGCAG — lower, 4560 fluorescence intensity (a.u.)
- AGCACTGTAATAGAAATTCCAATCAGATGGCTCATGAACTCGGAGTCACCTAGTGCAG — lower, 5800 fluorescence intensity (a.u.)
- ATAGATTGATTTGATAATTTCCTTGAGAGTAACACATGGGCGGAGTCACCTAGTGCAG — higher, 65500 fluorescence intensity (a.u.)
- AGCTGACTGCCAATTTCAAGAACATACCGGTCACTCTTGCCGGAGTCACCTAGTGCAG — higher, 20700 fluorescence intensity (a.u.)
- ATCCTAAATTGAAACTGAATCTACAGATGCGCATGGGTCTCGGAGTCACCTAGTGCAG — higher, 33100 fluorescence intensity (a.u.)
- AGATGACGACTTTATTGATTCTCTCTGTGTTTACAAAGTGCGGAGTCACCTAGTGCAG — higher, 7540 fluorescence intensity (a.u.)
- ATTACGACTTGGGACGTCAATTAAACTTGACGTGAAGTTGCGGAGTCACCTAGTGCAG — lower, 3540 fluorescence intensity (a.u.)
- GACTTCATAATTAACAGTGCACTGGGTCCATCCAATTGAGCGGAGTCACCTAGTGCAG — higher, 9720 fluorescence intensity (a.u.)
- ATGATATTTATATTAAATTAGATAAATATATGTGGTGCATCGGAGTCACCTAGTGCAG — higher, 13300 fluorescence intensity (a.u.)
- GGGGATAATTTTGTAGCTCGATGACAAGTTGATTTGGTGTCGGAGTCACCTAGTGCAG — higher, 19200 fluorescence intensity (a.u.)
- CTTCAACATATGCTAATTGCCTCGCCTATATATGCTACTCCGGAGTCACCTAGTGCAG — lower, 3910 fluorescence intensity (a.u.)
- CGGTAGTGATTGATTCGGATGATTTCACCAGTAGGATTGGCGGAGTCACCTAGTGCAG — higher, 65300 fluorescence intensity (a.u.)
- GCTGATTATTGTTATAAGTCAACAATTCTGTAACTTCTATCGGAGTCACCTAGTGCAG — higher, 26200 fluorescence intensity (a.u.)
- CCGGGTGATTACTTCTTCGAAAGCTATTTTCAGAGCCTATCGGAGTCACCTAGTGCAG — higher, 13600 fluorescence intensity (a.u.)
- TAAGATAGATGAATTGGGCACTTGAGGGTAAGAACACAGCCGGAGTCACCTAGTGCAG — higher, 6770 fluorescence intensity (a.u.)
- TACGTTAATTTCTTGCTTGCGTGCCTACAAATTAAAGTTCCGGAGTCACCTAGTGCAG — higher, 8190 fluorescence intensity (a.u.)
- GTGGTATTGACAAGTATTGGTAGTAGACCAAACATTGCCACGGAGTCACCTAGTGCAG — lower, 3800 fluorescence intensity (a.u.)
- GACAAAACTGGAAAATTAAAGCCAATAATCTCAACTCTCACGGAGTCACCTAGTGCAG — lower, 3250 fluorescence intensity (a.u.)
- TATGATTATAGTTGTCCTAAAATATAAGCGATTTTGGTTGCGGAGTCACCTAGTGCAG — higher, 20200 fluorescence intensity (a.u.)
- TTATTTAAATTTCTCCCTATTTTACCCTCAATTACCCTTCCGGAGTCACCTAGTGCAG — lower, 3250 fluorescence intensity (a.u.)
- CATAATTAATATCTAGTCCCAACTATCATACATATATGTACGGAGTCACCTAGTGCAG — higher, 31800 fluorescence intensity (a.u.)
- TTTACAAATTGATGTAGAAGTGAATCCAATTGCTGGCAAGCGGAGTCACCTAGTGCAG — higher, 30600 fluorescence intensity (a.u.)
- TGAATTTTCGACCTTAAATTAGGAGTTAATTTTGAGGTTTCGGAGTCACCTAGTGCAG — higher, 7030 fluorescence intensity (a.u.)
- AATGAATGACTGTCACAGTTCGATGATGTGACTATATATGCGGAGTCACCTAGTGCAG — higher, 16600 fluorescence intensity (a.u.)
- AGTTTTCCTAATTATAATAGATAGATATATAGACAGATAGCGGAGTCACCTAGTGCAG — higher, 18200 fluorescence intensity (a.u.)
- TAAGATTGATGGTCAAACACGGATTCCCACGGTTGTACTTCGGAGTCACCTAGTGCAG — higher, 48800 fluorescence intensity (a.u.)
- TTTCATATCATCTGATTATTAAGCAGTTTTGATATTTCACCGGAGTCACCTAGTGCAG — lower, 3320 fluorescence intensity (a.u.)
- ACTTGTATAATAATTAGCATATATATGGTTAGTTTGATTACGGAGTCACCTAGTGCAG — lower, 5750 fluorescence intensity (a.u.)
- CAAACTAAATAGACACCTTGCCTAATCTAAGCTATGACATCGGAGTCACCTAGTGCAG — higher, 10500 fluorescence intensity (a.u.)
- GCAATAGACTAGATTAATAGTAAACCACCTCAATAGTATGCGGAGTCACCTAGTGCAG — higher, 7580 fluorescence intensity (a.u.)
- CAAACTGTTAATTATGGCAATAATAGCCATCAAACGCGTACGGAGTCACCTAGTGCAG — higher, 25600 fluorescence intensity (a.u.)
- ATTTGATTGTCTTATGCTTGTTCTTTGATGATAAGCCATACGGAGTCACCTAGTGCAG — higher, 17200 fluorescence intensity (a.u.)
- TAATTTCAAATTGAATGAATTTGGGCATGTAATTTATTGCCGGAGTCACCTAGTGCAG — higher, 14500 fluorescence intensity (a.u.)
- TTTACATATTGATTATCTTATTAGTGCATTAGTTGTAATACGGAGTCACCTAGTGCAG — higher, 27900 fluorescence intensity (a.u.)
- GCTAAATTCCTATCAAATTCAAGTTTAACACATTACTGCGCGGAGTCACCTAGTGCAG — higher, 13100 fluorescence intensity (a.u.)
- TTCTAATTATGTATGTCATGTTTATTGTCTTAATATTTTGCGGAGTCACCTAGTGCAG — higher, 26400 fluorescence intensity (a.u.)
- AACTTGATTAAGGTTAGTTTGACCTTGTTATTCCAGAGTACGGAGTCACCTAGTGCAG — higher, 13300 fluorescence intensity (a.u.)
- GGAACTTGATTTATCATTGAAGGTACTTATATTTACACTTCGGAGTCACCTAGTGCAG — higher, 16700 fluorescence intensity (a.u.)
- ACCCATTCACCAATGATTGGATCACTCAAAGCCAAAGACCCGGAGTCACCTAGTGCAG — higher, 22100 fluorescence intensity (a.u.)
